# Results taken from PubChem BioAssay AID1347165 (National Center for Advancing Translational Sciences (NCATS), 2019).
# Several values for one entry are separate records, joined by “and”; a condition that tells them apart may be missing. Identical values can stand only once. Out of some 220,000 compounds screened, about 5,700 (2.6%) were called active. The shares of active, inactive and inconclusive entries below differ from those in the screen. The call rests on the fitted dose curve; in most records, active means well fitted inhibition curve with a large enough effect; inconclusive means small, poorly fitted or top-dose-only effect; inactive means no such curve, though single readings can be large or run the other way. Where the call is inconclusive, the potency comes from a doubtful curve fit.
# Molecular target: Lysine-specific demethylase 5B (Homo sapiens) (UniProt Q9UGL1)
# Experiment: Primary screen for KDM5B Histone Demethylases FDH-coupled qHTS; further: nearly all actives have a fitted effect of over 70% in size; on activity change, negative = inhibition: 0% is about no effect
# Settings: FDH-coupled NADH fluorescence (FDH is formaldehyde dehydrogenase); activity change, negative = inhibition: at 57.7 µM (top of the series) unless noted
# Method in brief: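 Measured: NADH fluorescence change, 30 min, RT. System: KDM5BΔAP 200 nM final, H3K4me3 peptide, α-KG, Fe(II), ascorbate, NAD⁺ plus FDH, pH 7.5 HEPES. Compounds: titrated, 10 min pre-incubation with enzyme.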
# Potency means the concentration at half of the fitted maximal effect; tags describe the fitted curve by direction and shape.
# Sequence of UniProt Q9UGL1 (Q9UGL1 whole entry, looked up): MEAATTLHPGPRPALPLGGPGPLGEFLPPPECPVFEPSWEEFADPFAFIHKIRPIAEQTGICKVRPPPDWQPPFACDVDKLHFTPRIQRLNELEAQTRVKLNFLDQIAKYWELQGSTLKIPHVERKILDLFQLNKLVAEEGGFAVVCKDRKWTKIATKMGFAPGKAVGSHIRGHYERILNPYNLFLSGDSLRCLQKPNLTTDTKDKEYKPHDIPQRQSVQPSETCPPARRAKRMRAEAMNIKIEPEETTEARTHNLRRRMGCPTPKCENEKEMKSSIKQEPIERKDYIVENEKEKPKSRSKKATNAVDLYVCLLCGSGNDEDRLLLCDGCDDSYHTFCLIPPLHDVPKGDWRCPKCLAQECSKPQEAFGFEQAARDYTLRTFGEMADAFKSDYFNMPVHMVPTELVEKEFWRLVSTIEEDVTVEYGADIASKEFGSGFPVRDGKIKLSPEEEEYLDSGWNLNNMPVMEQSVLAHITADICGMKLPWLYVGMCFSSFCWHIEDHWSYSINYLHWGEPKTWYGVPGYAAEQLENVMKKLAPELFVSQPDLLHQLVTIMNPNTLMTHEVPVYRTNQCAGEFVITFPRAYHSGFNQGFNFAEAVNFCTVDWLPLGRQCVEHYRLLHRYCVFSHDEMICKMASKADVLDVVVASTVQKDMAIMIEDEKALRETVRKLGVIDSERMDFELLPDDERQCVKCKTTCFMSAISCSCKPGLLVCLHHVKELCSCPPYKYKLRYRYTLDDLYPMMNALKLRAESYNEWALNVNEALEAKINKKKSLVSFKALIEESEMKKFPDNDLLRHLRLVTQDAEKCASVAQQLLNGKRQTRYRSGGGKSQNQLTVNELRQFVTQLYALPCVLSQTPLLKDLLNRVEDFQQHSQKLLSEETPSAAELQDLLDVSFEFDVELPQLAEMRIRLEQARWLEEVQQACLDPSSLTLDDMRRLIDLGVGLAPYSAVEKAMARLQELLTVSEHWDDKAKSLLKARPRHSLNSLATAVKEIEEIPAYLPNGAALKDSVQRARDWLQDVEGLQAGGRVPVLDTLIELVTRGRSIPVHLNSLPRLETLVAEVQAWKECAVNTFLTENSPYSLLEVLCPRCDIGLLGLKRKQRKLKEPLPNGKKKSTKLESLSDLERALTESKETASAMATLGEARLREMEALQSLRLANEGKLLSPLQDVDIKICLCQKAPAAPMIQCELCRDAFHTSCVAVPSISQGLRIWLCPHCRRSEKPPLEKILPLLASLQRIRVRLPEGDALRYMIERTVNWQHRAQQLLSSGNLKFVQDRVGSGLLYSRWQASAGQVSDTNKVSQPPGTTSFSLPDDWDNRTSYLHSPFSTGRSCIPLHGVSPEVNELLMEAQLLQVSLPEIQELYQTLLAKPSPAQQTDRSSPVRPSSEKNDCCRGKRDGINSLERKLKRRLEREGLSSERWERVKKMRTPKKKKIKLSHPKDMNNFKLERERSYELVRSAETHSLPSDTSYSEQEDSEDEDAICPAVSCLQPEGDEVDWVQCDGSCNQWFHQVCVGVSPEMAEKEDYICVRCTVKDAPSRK
Compound,Potency,"activity change, negative = inhibition"
N#C/C(=C/c1ccccc1OC(F)(F)F)c1ccccn1,"inconclusive: 39.8 µM [inhibitor, single point]",
CC(C)NC(=O)NC(=O)CN(C)Cc1cccc(C#N)c1,inactive,
O=C(NCc1ccc(-c2ccccc2)cc1)[C@H]1CCC[C@H](O)C1,inactive,
COc1cccc(CNC(=O)CN(c2ccc(C(C)C)cc2)S(=O)(=O)c2c(C)noc2C)c1,"inconclusive: 2.24 µM [inhibitor, partial curve, poor fit]",
Cc1cc(C)cc(NC(=O)CNc2nc(Nc3ccccc3)nc(Nc3ccccc3)n2)c1,"inconclusive: 22.4 µM [inhibitor, partial curve, poor fit]",
CC(C)Oc1ccc(CNC(=O)c2cccc(NC(=O)N3CCSc4ncccc43)c2)cc1,"inconclusive: 28.2 µM [inhibitor, partial curve, poor fit]",
CS(=O)(=O)c1ccc(CN2C[C@H](O)C[C@H]2c2nc(-c3cnccn3)no2)cc1,active: 35.5 µM,
COc1cccc(CCC(=O)N2CCC(Cc3nc(C4CC4)n[nH]3)CC2)c1,"inconclusive: 31.6 µM [inhibitor, partial curve, poor fit]",
O=C(/C=C/c1cccc(O)c1)c1ccc(F)c(Cl)c1,"inconclusive: 39.8 µM [inhibitor, single point]",
N#Cc1c(-c2ccccc2)cc(-c2cccs2)nc1S(=O)Cc1ccccc1 (stereo not given),"inconclusive: 31.6 µM [inhibitor, partial curve, poor fit]",
COc1ccc(-c2nnc([C@H]3CCN(S(C)(=O)=O)C3)o2)cc1,inactive,
Cc1c(C)n(Cc2ccncc2)c2ncn3nc(-c4ccncc4)nc3c12,inactive,
O=C(NC1CCN(c2cc(-c3ccc(F)cc3)[nH]n2)C1)c1cc(Cl)ccc1F (stereo not given),"inconclusive: 11.2 µM [inhibitor, partial curve]",
N#Cc1ccc(NCc2cc3n(n2)CCCN(C2CCCCC2)C3)nc1,"inconclusive: 12.6 µM [inhibitor, partial curve, poor fit]",
CC(=O)Nc1cccc(-c2ccc(COc3ccc4c(cnn4CCC(=O)O)c3)cc2)c1,"inconclusive: 44.7 µM [inhibitor, single point]",
OCCN1CCN(C2CCC(c3ccc(F)cc3)c3ccc(F)cc32)CC1 (stereo not given),"inconclusive: 39.8 µM [inhibitor, partial curve, poor fit]",
CCOC(=O)C1CCN(C(=O)CC(c2ccc3c(c2)OCO3)c2c[nH]c3ccccc23)CC1 (stereo not given),"inconclusive: 39.8 µM [inhibitor, partial curve, poor fit]",
CN(C)C[C@@H]1CN(c2ncccn2)C[C@H]1NS(=O)(=O)Cc1ccc(F)cc1,active: 25.1 µM,
O=C1COc2ccc(-c3cn[nH]c3)nc2CN1Cc1ccccc1,inactive,
CCCCN(CCCC)C(=O)C1CCN(S(=O)(=O)c2cccc3nsnc23)CC1,,inconclusive: -31.1% [inhibitor]
Fc1ccc(CCNC(=S)Nc2ccc(Oc3ccccc3)cc2)cc1,"inconclusive: 14.1 µM [inhibitor, partial curve, poor fit]",
O=C1NCCCc2[nH]c(-c3ccccc3-n3cccn3)nc21,"inconclusive: 10 µM [inhibitor, single point]",

Compound,Potency,"activity change, negative = inhibition"
O=S(=O)(NCc1ccc(Cl)cc1)c1ccc(-c2cnc(C3CC3)o2)cc1,"inconclusive: 2.24 µM [inhibitor, partial curve, poor fit]",
COc1ccc(OC)c(/C=C/C(=O)Nc2ccc(C(=O)OCCC(C)C)cc2)c1,"inconclusive: 25.1 µM [inhibitor, partial curve, poor fit] and inconclusive: 2.82 µM [inhibitor, full curve, poor fit]",
CC(C)(CO)C(O)C(=O)NCCCS(=O)(=O)O (stereo not given),inactive,
COc1ccc(-c2ocnc2C(=O)Nc2cc(C)ccc2C)cc1,"inconclusive: 28.2 µM [inhibitor, single point]",
FC(F)(F)c1ccc(CCNC(=S)NC2CC2)cc1,inactive,
Cc1c(-c2ccc(Cl)cc2)c(=O)oc2ccc(OC(=O)N3CCOCC3)cc12,"inconclusive: 35.5 µM [inhibitor, single point]",
CC(C)(C)c1cc(NC(=O)COC(=O)c2nccnc2N)n(-c2ccccc2)n1,"inconclusive: 28.2 µM [inhibitor, partial curve, poor fit]",
COc1cccc(-n2c(-c3cccc(F)c3)nc3c(cnn3-c3ccc(C)cc3)c2=O)c1,"inconclusive: 31.6 µM [inhibitor, partial curve, poor fit]",
CC(C)(C)c1ccc(C(=O)C(=O)N(Cc2cccs2)C2CC2)cc1,inactive,
C=CCN1CCC2(CCC1=O)CN(c1ccc(C#N)cn1)CCN2C (stereo not given),"inconclusive: 25.1 µM [inhibitor, partial curve, poor fit]",
CCN1CC(c2ccccc2)CC2(CCN(Cc3cnc(SC)nc3)CC2)C1 (stereo not given),inactive,
CC(NC(=O)c1ccccc1SCc1cccs1)c1cccs1 (stereo not given),inactive,
CCC1c2ccsc2CCN1C(=O)COc1ccc2c(C)cc(=O)oc2c1 (stereo not given),"inconclusive: 20 µM [inhibitor, partial curve, poor fit]",
CCN(CCCNC(=O)c1cc2c(Cl)nc3ccccc3c2s1)Cc1ccccc1,"inconclusive: 22.4 µM [inhibitor, single point]",
COc1ccc(CNC(=O)c2ncoc2-c2cccc(Cl)c2)cc1OC,inactive,
COCCOCC(=O)N1CC[C@H]2C(=O)NCCCCCCN(Cc3ccncc3)[C@@H]2C1,"inconclusive: 25.1 µM [inhibitor, partial curve, poor fit]",
CCOc1ccc(CCNC(=O)c2ccc(-n3c(C)cc4c3CCC(C)C4)cc2)cc1OCC (stereo not given),"inconclusive: 15.8 µM [inhibitor, partial curve, poor fit]",
Cc1cc(Br)ccc1NC(=O)CN(C)Cc1nc2ccccc2o1,inactive,
Cc1cccc(NC(=O)c2sc3nc(N4CCOCC4)c4c(c3c2N)CC(C)(C)OC4)c1,"inconclusive: 28.2 µM [inhibitor, partial curve, poor fit]",
Cc1cccc(NC(=O)c2ccc3c(c2)CCC3)c1C,inactive,
O=C(NCc1ccc(F)cc1)c1nc(-c2ccc(Cl)nc2)c2cnccn12,"inconclusive: 3.16 µM [inhibitor, full curve, poor fit]",
O=C(CSc1nc2c([nH]c3ccccc32)c(=O)n1-c1ccccc1)Nc1ccc2c(c1)OCCO2,"inconclusive: 39.8 µM [inhibitor, single point]",

Compound,Potency,"activity change, negative = inhibition"
CN(C)c1ccc(CN2CCOC[C@H]2c2nc(C(C)(C)C)co2)cc1,"inconclusive: 28.2 µM [inhibitor, single point]",
CCOc1cc(CNCc2cccnc2)cc(Cl)c1OCC,inactive,
CCCCn1cnc2c(c1=O)c1nc3ccccc3nc1n2Cc1ccc2c(c1)OCO2,"inconclusive: 25.1 µM [inhibitor, partial curve, poor fit]",
CN1CCC2(C1)CN(CC1CCOCC1)c1ccc(C(=O)NCC(F)(F)F)cc12 (stereo not given),active: 35.5 µM,
COc1ccc(CC(=O)NCCc2csc3nc(-c4ccccc4F)nn23)cc1,inactive,
Cc1ccc(NC(=O)CN(C)S(=O)(=O)c2ccc3[nH]c4c(c3c2)CCCC4)c(Cl)c1,"inconclusive: 28.2 µM [inhibitor, partial curve, poor fit]",
CC(=O)NC1(C)CN(Cc2ccc(-c3ccc(Oc4ccccc4)cc3)s2)C1,"inconclusive: 35.5 µM [inhibitor, single point]",
CCCN(C(=O)CCc1nc(-c2ccc(OC)cc2)no1)c1ccccc1F,"inconclusive: 22.4 µM [inhibitor, single point]",
O=C(C1CC(=O)N(c2n[nH]c3ccccc23)C1)N1CCC(c2nc3ccccc3[nH]2)CC1 (stereo not given),inactive,
Cc1oc(-c2ccccc2F)nc1CS(=O)(=O)CC(=O)NCCc1ccc(Cl)cc1,"inconclusive: 44.7 µM [inhibitor, single point]",
COC(=O)[C@@H]1Cc2c([nH]c3ccccc23)[C@H]2C[C@@H](NC(C)C)C[C@@H](c3ccc(C)cc3)N21,active: 28.2 µM,
CN(C)C[C@@H]1CN(S(C)(=O)=O)C[C@H]1NC(=O)c1ccccc1,inactive,
O=C(NC1CCCC1)c1ccc2c(c1)n(Cc1ccccc1)c(=O)c1ccnn12,"inconclusive: 8.91 µM [inhibitor, full curve, poor fit]",
CSc1ccc(/C=C2/C(=O)c3ccccc3OC2c2ccccc2)cc1 (stereo not given),inactive,
C[C@]1(CO)[C@H]2Cc3sc(NC(=O)c4ccc(F)cc4)nc3[C@@H](CC(=O)NCc3cccs3)[C@]2(C)CC[C@H]1O,"inconclusive: 31.6 µM [inhibitor, single point]",
CCc1ccc(CN2CCCC(CNC(=O)c3cccc(OC)c3OC)C2)cc1 (stereo not given),"inconclusive: 17.8 µM [inhibitor, partial curve, poor fit]",
O=C(CN1CCN(S(=O)(=O)Cc2ccccc2)CC1)Nc1cccc(Cl)c1,inactive,
COCCOc1ncccc1-c1noc([C@@H]2CCCN2C(C)C)n1,"inconclusive: 39.8 µM [inhibitor, partial curve]",
COc1ccc(-c2cc3c(=O)n(CCNC(=O)c4c(F)cccc4Cl)ccn3n2)cc1,active: 22.4 µM,
CCn1ccc2c(OCC(=O)NCc3ccc(F)cc3)cccc2c1=O,"inconclusive: 28.2 µM [inhibitor, single point]",
Cc1nc2ccccc2c(C)c1CC(=O)NCCCc1[nH]nc(N)c1C#N,inactive,
